Counter-ions that a name gives are not always drawn. ± gives the standard deviation of the averaged measurements. Over roughly 1,900 compounds, “normalised cell viability (NPI; 0 = phenylarsine oxide control, 1 = DMSO control)” has its median near 1; the lowest 2% begin near 0.039. This is one part of the list.
Tested on: NCI-H1944
Experiment: normalised cell viability (NPI; 0 = phenylarsine oxide control, 1 = DMSO control) (fraction of DMSO control); NCI-H1944 is a non-small cell lung cancer line; higher = more viable cells (less compound toxicity)
Details: 6 days
[1] = glucocorticoid arm: hydrocortisone 2.75 uM co-treatment, compound 1 µM
[2] = glucocorticoid arm: hydrocortisone 2.75 uM co-treatment, compound 5 µM
[3] = glucocorticoid arm: hydrocortisone 2.75 uM pre-treated 2 days and continued, compound 1 µM
[4] = glucocorticoid arm: hydrocortisone 2.75 uM pre-treated 2 days and continued, compound 5 µM
[5] = glucocorticoid arm: vehicle, compound 1 µM
[6] = glucocorticoid arm: vehicle, compound 5 µM
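Also: CTB read-out in 384-well plates, mean of triplicate wells, normalised per plate against 1 µM phenylarsine oxide and 0.1% DMSO, compounds added 24 h after seeding.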

SMILES | normalised cell viability [1] | normalised cell viability [2] | normalised cell viability [3] | normalised cell viability [4] | normalised cell viability [5] | normalised cell viability [6]
CCCCOc1c(C(=O)c2c(F)cc(C)cc2F)c[nH]c2nncc1-2 | 0.91 ± 0.018 | 0.988 ± 0.017 | 0.9857 ± 0.0032 | 1.02 ± 0.022 | 0.561 ± 0.04 | 0.861 ± 0.018
COc1cccc(OC)c1OCCNCC1COc2ccccc2O1 (stereo not drawn) [WB-4101 hydrochloride] | 0.99 ± 0.005 | 0.9467 ± 0.0064 | 0.992 ± 0.016 | 0.998 ± 0.011 | 0.9793 ± 0.0011 | 0.98 ± 0.0036
Nc1ccccc1NC(=O)c1ccc(CNC(=O)OCc2cccnc2)cc1 [Entinostat (MS-275)] | 1.05 ± 0.015 | 0.184 ± 0.004 | 1.023 ± 0.0058 | 0.302 ± 0.018 | 0.866 ± 0.026 | 0.02 ± 0.0035
Nc1ccccc1NC(=O)c1ccc(CNC(=O)OCc2cccnc2)cc1 [Entinostat] | 0.925 ± 0.019 | 0.0313 ± 0.0074 | 0.962 ± 0.013 | 0.0766 ± 0.011 | 0.348 ± 0.03 | 0.00136 ± 0.00059
O=C1NCN(c2ccccc2)C12CCN(CCCC(c1ccc(F)cc1)c1ccc(F)cc1)CC2 [Fluspirilene] | 1 ± 0.011 | 0.9263 ± 0.009 | 0.993 ± 0.018 | 1.01 ± 0.01 | 1 | 1.01 ± 0.01
CC(=O)SCC[N+](C)(C)C [Acetylthiocholine chloride] | 0.9853 ± 0.0084 | 0.988 ± 0.011 | 0.991 ± 0.011 | 0.989 ± 0.014 | 0.977 ± 0.011 | 0.986 ± 0.007
CN(C)CC[C@H](CSc1ccccc1)Nc1ccc(S(=O)(=O)NC(=O)c2ccc(N3CCN(Cc4ccccc4-c4ccc(Cl)cc4)CC3)cc2)cc1[N+](=O)[O-] | 0.99 ± 0.018 | 1.03 ± 0.015 | 0.994 ± 0.025 | 1.023 ± 0.0058 | 1.001 ± 0.009 | 0.926 ± 0.018
CC(C)COC(=O)OCN1C(=O)CN(CCN2CC(=O)N(COC(=O)OCC(C)C)C(=O)C2)CC1=O [Sobuzoxane] | 0.997 ± 0.003 | 0.992 ± 0.0098 | 1.03 ± 0.042 | 1.02 ± 0.027 | 1.002 ± 0.0076 | 0.9833 ± 0.0083
Nc1ccc(-c2ccc3ccccc3n2)cc1 [BF-170 hydrochloride] | 0.9843 ± 0.0029 | 0.9947 ± 0.0092 | 1.01 ± 0.021 | 0.9853 ± 0.0045 | 0.9917 ± 0.0042 | 0.9827 ± 0.0097
COC(=O)[C@@H]1[C@H]2C[C@H]3c4[nH]c5ccccc5c4CCN3C[C@@H]2CC[C@@H]1O [Yohimbine hydrochloride] | 1 ± 0.013 | 1.03 ± 0.015 | 1.02 ± 0.017 | 1.01 ± 0.023 | 1.007 ± 0.0058 | 1.01 ± 0.015
CN(C)CCSSCCNC(=O)C1CCN(C(=O)CSc2ccc(Cl)cc2)CC1 | 1.01 ± 0.01 | 1.04 ± 0.015 | 1.027 ± 0.0058 | 1.05 ± 0.01 | 0.9967 ± 0.0035 | 0.9967 ± 0.0042
CC(C)C[C@H](NC(=O)[C@H]1O[C@@H]1C(=O)O)C(=O)NCCCCN=C(N)N | 1.002 ± 0.0068 | 1.01 ± 0.012 | 1.003 ± 0.0061 | 1.01 ± 0.023 | 1.007 ± 0.0058 | 1.003 ± 0.0058
CC1(C)NC(=O)N(c2ccc([N+](=O)[O-])c(C(F)(F)F)c2)C1=O [Nilutamide] | 1 ± 0.014 | 0.9927 ± 0.0046 | 0.996 ± 0.004 | 1.04 ± 0.061 | 1.017 ± 0.0058 | 1.03 ± 0.021
CN(C)Cc1ccc(-c2nc3cccc4c3n2CCNC4=O)cc1 | 0.98 ± 0.014 | 1 ± 0.014 | 0.977 ± 0.013 | 1.01 ± 0.016 | 0.987 ± 0.003 | 0.971 ± 0.012
Cc1[nH]c(/C=C2\C(=O)Nc3ccc(S(=O)(=O)N(C)c4cccc(Cl)c4)cc32)c(C)c1C(=O)N1CCN(C)CC1 | 0.9913 ± 0.0072 | 0.986 ± 0.012 | 1.003 ± 0.0058 | 0.989 ± 0.014 | 0.969 ± 0.01 | 0.849 ± 0.036
Cc1nc(NC(=O)N2CCC[C@H]2C(N)=O)sc1-c1ccnc(C(C)(C)C(F)(F)F)c1 | 0.751 ± 0.046 | 0.509 ± 0.015 | 0.781 ± 0.011 | 0.583 ± 0.027 | 0.936 ± 0.014 | 0.6607 ± 0.0029
CC(C)NCC(O)COc1cccc2ccccc12 (stereo not drawn) [Propranolol HCl] | 1.03 | 1.01 ± 0.018 | 1.03 ± 0.011 | 1.04 ± 0.011 | 0.9913 ± 0.0011 | 0.9797 ± 0.0031

SMILES | normalised cell viability [1] | normalised cell viability [2] | normalised cell viability [3] | normalised cell viability [4] | normalised cell viability [5] | normalised cell viability [6]
Nc1ncnc2c1c(-c1cnc3[nH]ccc3c1)nn2C1CCCC1 | 0.425 ± 0.051 | 0.132 ± 0.0044 | 0.393 ± 0.019 | 0.15 ± 0.013 | 0.548 ± 0.027 | 0.0446 ± 0.004
C[C@@H](NC(=O)/C(C#N)=C/c1ccc(O)c(O)c1)c1ccccc1 [Tyrphostin AG 527] | 1.013 ± 0.0058 | 0.9963 ± 0.0038 | 0.879 ± 0.22 | 0.999 ± 0.011 | 1.003 ± 0.0058 | 1.003 ± 0.0061
N#C/C(=C/c1ccc(O)c(O)c1)C(=O)N1CCc2ccccc21 [Tyrphostin AG 528] | 0.993 ± 0.0089 | 0.987 ± 0.032 | 1.02 ± 0.031 | 0.9767 ± 0.0095 | 1.003 ± 0.0058 | 1.02 ± 0.01
CCC1=C(C)CN(C(=O)NCCc2ccc(S(=O)(=O)NC(=O)N[C@H]3CC[C@H](C)CC3)cc2)C1=O [Glimepiride] | 0.9887 ± 0.0096 | 1.02 ± 0.015 | 1.01 ± 0.015 | 1.03 ± 0.011 | 1.003 ± 0.0058 | 1.01 ± 0.012
O=C1CCc2cc(OCCCCc3nnnn3C3CCCCC3)ccc2N1 [Cilostazol] | 1 ± 0.011 | 1.03 ± 0.015 | 1 ± 0.013 | 1.025 ± 0.0071 | 0.9897 ± 0.009 | 1.007 ± 0.0058
N#C[C@@H]1C[C@@H]2C[C@@H]2N1C(=O)[C@@H](N)C12CC3CC(CC(O)(C3)C1)C2 | 0.977 ± 0.018 | 0.991 ± 0.033 | 1 ± 0.019 | 1.01 ± 0.012 | 0.99 ± 0.0089 | 0.997 ± 0.012
O=C(O)[C@H]1C[C@H](C(=O)O)N1 (relative stereo) [trans-Azetidine-2,4-dicarboxylic acid] | 1.007 ± 0.0058 | 1.007 ± 0.0058 | 1.005 ± 0.0087 | 1.01 | 0.9843 ± 0.0025 | 0.9883 ± 0.0091
O=P(O)(O)C(Cl)(Cl)P(=O)(O)O [Clodronic acid] | 1 ± 0.018 | 0.998 ± 0.011 | 1 ± 0.013 | 0.9957 ± 0.0058 | 0.9967 ± 0.0058 | 0.994 ± 0.004
N=C(N)NCCC[C@H](N)C(=O)O [L-Arginine] | 1 ± 0.018 | 0.997 ± 0.0027 | 0.994 ± 0.0066 | 1 ± 0.011 | 0.986 ± 0.0085 | 1.001 ± 0.0081
CNCCC(Oc1ccc(C(F)(F)F)cc1)c1ccccc1 (stereo not drawn) [Fluoxetine hydrochloride] | 0.996 ± 0.013 | 0.933 ± 0.025 | 1 ± 0.0095 | 1.02 ± 0.015 | 1.01 ± 0.011 | 0.9983 ± 0.0021
CNCCC(Oc1ccc(C(F)(F)F)cc1)c1ccccc1 (stereo not drawn) [Fluoxetine HCl] | 0.996 ± 0.002 | 0.897 ± 0.013 | 0.991 ± 0.041 | 0.956 ± 0.014 | 0.995 ± 0.0056 | 0.974 ± 0.027
C[C@@H](CN1CC(=O)NC(=O)C1)N1CC(=O)NC(=O)C1 [Dexrazoxone; Dexrazoxane] | 1.03 | 1.04 ± 0.04 | 1.02 ± 0.011 | 1.02 ± 0.01 | 0.9923 ± 0.008 | 1.003 ± 0.0058
OCc1cc(C(O)CNCCCCCCOCCCCc2ccccc2)ccc1O (stereo not drawn) [Salmeterol Xinafoate] | 1.017 ± 0.0058 | 0.957 ± 0.031 | 1.017 ± 0.0058 | 0.962 ± 0.037 | 1.007 ± 0.0058 | 0.988 ± 0.0056
OCc1cc(C(O)CNCCCCCCOCCCCc2ccccc2)ccc1O (stereo not drawn) [Salmeterol xinafoate] | 0.9917 ± 0.0047 | 0.944 ± 0.017 | 0.897 ± 0.19 | 1.03 ± 0.015 | 1 ± 0.0092 | 1.01 ± 0.011
C#CCN1C(C)=C(C(=O)OC)C(c2cccc([N+](=O)[O-])c2)C(C(=O)OCC)=C1C (stereo not drawn) | 0.9993 ± 0.0092 | 0.861 ± 0.0093 | 0.9923 ± 0.0049 | 1.09 ± 0.078 | 1.013 ± 0.0058 | 0.985 ± 0.033
CN(C)C1CCN(C(=O)c2ccc(NC(=O)Nc3ccc(-c4nc(N5CCOCC5)nc(N5CCOCC5)n4)cc3)cc2)CC1 | 0.231 ± 0.011 | 0.105 ± 0.0056 | 0.311 ± 0.026 | 0.147 ± 0.012 | 0.0929 ± 0.0075 | 0.0212 ± 0.0032
